# Experimental data: article PMC4336329 (PLoS ONE, 2015)
# Among all 310,000 compounds or so, about 2,200 (0.71%) showed an effect of 50% or more. The effect is printed as a negative number. The list shows a part of the results.
# Target: human ether-à-go-go-related gene (hERG) potassium channel (human, UniProt Q12809)
# Assay: primary screen, population patch clamp on CHO cells stably expressing hERG
# Sequence of human ether-à-go-go-related gene (hERG) potassium channel (Q12809 whole entry, looked up): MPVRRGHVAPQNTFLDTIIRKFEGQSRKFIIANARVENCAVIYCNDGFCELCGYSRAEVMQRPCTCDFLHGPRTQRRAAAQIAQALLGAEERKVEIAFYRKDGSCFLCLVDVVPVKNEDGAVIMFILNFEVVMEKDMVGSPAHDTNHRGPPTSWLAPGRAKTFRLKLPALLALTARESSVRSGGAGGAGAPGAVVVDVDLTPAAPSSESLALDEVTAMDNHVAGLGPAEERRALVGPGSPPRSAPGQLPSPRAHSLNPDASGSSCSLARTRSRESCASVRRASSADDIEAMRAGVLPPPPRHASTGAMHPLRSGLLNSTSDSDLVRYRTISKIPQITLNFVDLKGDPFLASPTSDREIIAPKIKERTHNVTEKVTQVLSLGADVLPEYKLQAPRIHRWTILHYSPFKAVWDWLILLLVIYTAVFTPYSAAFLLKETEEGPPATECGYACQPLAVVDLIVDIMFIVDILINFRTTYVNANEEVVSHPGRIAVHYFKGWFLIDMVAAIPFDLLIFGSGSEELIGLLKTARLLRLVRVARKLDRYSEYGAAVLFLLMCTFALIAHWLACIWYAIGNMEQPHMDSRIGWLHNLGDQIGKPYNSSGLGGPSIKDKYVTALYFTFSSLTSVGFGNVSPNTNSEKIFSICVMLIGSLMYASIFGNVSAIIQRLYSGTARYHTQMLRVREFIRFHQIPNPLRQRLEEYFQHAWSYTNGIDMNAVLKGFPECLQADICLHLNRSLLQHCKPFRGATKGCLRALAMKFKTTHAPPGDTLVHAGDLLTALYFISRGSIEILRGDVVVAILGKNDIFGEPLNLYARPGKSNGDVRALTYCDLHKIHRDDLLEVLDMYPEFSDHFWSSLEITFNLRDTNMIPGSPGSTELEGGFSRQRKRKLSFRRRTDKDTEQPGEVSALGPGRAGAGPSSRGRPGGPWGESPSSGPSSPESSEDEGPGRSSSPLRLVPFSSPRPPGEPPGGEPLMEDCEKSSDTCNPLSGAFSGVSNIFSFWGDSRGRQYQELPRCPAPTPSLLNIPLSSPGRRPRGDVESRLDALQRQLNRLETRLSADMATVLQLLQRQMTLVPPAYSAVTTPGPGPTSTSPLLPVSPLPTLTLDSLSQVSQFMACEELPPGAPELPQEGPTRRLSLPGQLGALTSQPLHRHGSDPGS
row,Structure (SMILES),"hERG current change (%, negative = inhibition) at 1uM [%]"
1,COc1ccccc1N1CCN(CC(=O)N2CCCC2)CC1.O=C(O)C(=O)O,7.69
2,CCOC(=O)C1CCN(S(=O)(=O)c2ccc(CC)cc2)CC1,13.7
3,C=CCNC(=O)c1ccccc1SCc1c(C)noc1C,14
4,Cc1ccc(OCC(O)Cn2c(N3CCCCC3)nc3c2c(=O)[nH]c(=O)n3C)cc1 (stereo not shown),10.4
5,CCN(CC)C(=O)Cn1cc(S(=O)(=O)CC(=O)NCc2ccccc2)c2ccccc21,3.37
6,CCOC(=O)c1nc(C)sc1-c1ccnn1S(=O)(=O)c1cccc(Cl)c1,19.4
7,CCOC(=O)C1=C(C)N(CCCC(=O)O)C(=O)NC1c1ccccc1OS(=O)(=O)c1ccc(C)cc1 (stereo not shown),11.8
8,O=C(CCN1C(=O)[C@H]2CC=CC[C@H]2C1=O)NCc1nc(-c2ccc(Cl)cc2)no1,5.81
9,Cc1ccc(CS(=O)(=O)CCC(=O)NCCN2CCCCC2C)cc1 (stereo not shown),9.58
10,COc1ccc(NC(=O)C2CCC(=O)N2C(=O)OCc2ccccc2)cc1 (stereo not shown),13.5
11,CCOC(=O)C1CCCN(c2c(NCCCN(C)c3ccccc3)c(=O)c2=O)C1 (stereo not shown),4.8
12,CCOC(=O)C1CCCN(S(=O)(=O)c2cn(C)c(=O)n(C)c2=O)C1 (stereo not shown),13.2
13,C=C1C(=O)O[C@H]2[C@H]1[C@H](OC(=O)CC(=O)O[C@@H]1C[C@@H](C)[C@@H]3C=CC(=O)[C@@]3(C)[C@H]3OC(=O)C(=C)[C@H]13)C[C@@H](C)[C@H]1C=CC(=O)[C@]12C,19.2
14,Cc1ccc(CNC(=O)c2cc(C)nn2-c2ccccc2)cc1,-9.03
15,CCC(=O)NC(=S)Nc1ccc(NC(=O)c2ccc([N+](=O)[O-])cc2)cc1,15.2
16,CCCC(=O)C1=C(O)C(C(=O)OC)C(C)(C)CC1=Nc1cccc2ccccc12 (stereo not shown),0.464
17,COCCN1C(=O)N(c2cccc(C)c2)C(=O)C1CC(=O)Nc1cc(OC)cc(OC)c1 (stereo not shown),10.9
18,COc1ccc(Cc2nnc(NC(=O)c3ccc(OC)cc3OC)s2)cc1,8.51
19,COc1ccc(CN2CCN(C(=O)c3cccs3)CC2)cc1.O=C(O)C(=O)O,4.91
20,CCN(CC)S(=O)(=O)c1ccc(N2CCCCC2)c(C(=O)Nc2ccccc2N2CCOCC2)c1,-16.4
21,O=C(CSc1ncnc2c1cnn2-c1ccccc1)Nc1ccccc1,8.54
22,O=C(Cn1cc(Cl)ccc1=O)c1ccc(Cl)cc1,17.9
23,CCC(NC(=O)C1CCCC1)c1ccc(C)cc1 (stereo not shown),13.5
24,COc1ccc(F)cc1CSc1nnnn1-c1ccc(O)cc1,7.91
25,Cc1cccc(C(=O)NCC(=O)NCCSc2ccc(Br)cc2)c1,5.89
26,CC(NC(=O)CN(c1ccccc1F)S(C)(=O)=O)c1ccccc1 (stereo not shown),3.41
27,CCN(Cc1ccccc1)C(=O)c1ccc(NC(=O)c2ccc(OC)cc2)cc1,20.1
28,Nc1cc(=O)[nH]c(SCC(=O)c2ccc(F)cc2)n1,6.43

row,Structure (SMILES),"hERG current change (%, negative = inhibition) at 1uM [%]"
1,COc1ccc(CN2CCN(Cc3ccc(C(F)(F)F)cc3)CC2)cc1.O=C(O)C(=O)O,-24.5
2,O=C(COc1ccc2c3c(c(=O)oc2c1)CCCC3)N[C@@H](Cc1ccccc1)C(=O)O,-9.98
3,NC(=O)CC(NC(=O)c1ccccc1)c1ccc(NCc2ccccc2)c([N+](=O)[O-])c1 (stereo not shown),21.7
4,CCCCN1C(=O)C(=O)NC[C@@H]1C(C)CC (stereo partly shown),15.4
5,CC(=C1C(=O)c2ccccc2C1=O)N1CCN(c2ccccn2)CC1,0.63
6,CCN(CC)CCOC(=O)c1ccc(N/C=C(/C#N)c2nc(-c3cccc(OC)c3)cs2)cc1,13.7
7,Cc1cc(C)c(NC(=O)CNC(=O)CN(C)Cc2ccc(Br)s2)c(C)c1,7.83
8,Cn1cccc1/C=C1\SC(=Nc2cccc(O)c2)NC1=O,6.89
9,Cc1nc(Nc2ccccc2)sc1C(=O)Nc1ccccc1,13.3
10,NC(=O)C1CN(S(=O)(=O)c2ccc(Cl)cc2F)c2ccccc2O1 (stereo not shown),7.68
11,O=C(Cn1cccc1C(=O)c1ccccc1)NCc1ccco1,8.06
12,CN(CC(=O)Nc1ncn[nH]1)S(=O)(=O)c1ccc(Cl)cc1,11.8
13,CC1Cc2ccccc2N1C(=O)Cc1cccs1 (stereo not shown),7.82
14,COC(=O)C1CCN(C(=O)/C=C/c2ccccc2)CC1,11.1
15,CC(C)C(NC(=O)c1ccc2c(c1)OCO2)C(=O)N/N=C/c1cccs1 (stereo not shown),18.5
16,CC(=O)N1c2ccc(S(=O)(=O)N3CCCC3)cc2CC1C(=O)NCc1ccc(OC(C)C)cc1 (stereo not shown),12.2
17,CCOC(=O)C1=C(C)NC(=O)NC1c1ccc(C)o1 (stereo not shown),11.6
18,CCOC(=O)c1cnn(-c2ccc(F)cc2)c1N,5.78
19,CC(=O)OCC(CCn1cnc2cnc(N)nc21)COC(C)=O,16.8
20,CNCCCOc1cccc(OC(C)C)c1.O=C(O)C(=O)O,7.86
21,O=C(Nc1ncc(S(=O)(=O)c2ccc([N+](=O)[O-])cc2)s1)c1ccccc1F,14.3
22,Cc1ccc(-c2csc(NC(=O)C[n+]3cc(-c4ccccc4)n4c3CCC4)n2)cc1.[Cl-],6.26
23,CCOC(=O)c1nn(-c2ccc3ccccc3c2)cc1O,13.1
24,COCCn1c(Cc2ccccc2)nnc1SCC(=O)Nc1cc(C)on1,3.43
25,CSc1ccc(/C=C(/NC(=O)c2ccco2)C(=O)N2CCOCC2)cc1,-1.91
26,CCc1ccc(NC(=O)CCNS(=O)(=O)c2cccs2)cc1,11.2
27,O=C(N/N=C/c1ccc2c(c1)OCO2)c1cc(-c2ccc(F)cc2)nc2ccccc12,16.3
